Our source for the binding values is article PMC6956818, “Activation of JNK and p38 MAPK Mediated by ZDHHC17 Drives Glioblastoma Multiforme Development and Malignant Progression” (Theranostics, 2020).

Amino acid sequences for entries named in this document (tags omitted).
UniProt P45983: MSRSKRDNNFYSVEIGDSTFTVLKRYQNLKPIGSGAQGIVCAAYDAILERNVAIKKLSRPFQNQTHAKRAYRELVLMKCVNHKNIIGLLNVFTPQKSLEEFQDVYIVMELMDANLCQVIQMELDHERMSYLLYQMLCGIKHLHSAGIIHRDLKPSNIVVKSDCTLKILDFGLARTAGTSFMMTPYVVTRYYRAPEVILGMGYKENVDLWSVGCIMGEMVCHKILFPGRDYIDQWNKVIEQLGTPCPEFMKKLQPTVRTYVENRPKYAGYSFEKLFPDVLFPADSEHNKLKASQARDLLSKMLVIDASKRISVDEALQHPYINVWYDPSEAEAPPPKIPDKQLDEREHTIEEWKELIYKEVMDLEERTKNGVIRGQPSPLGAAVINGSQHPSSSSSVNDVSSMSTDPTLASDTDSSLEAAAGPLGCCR

No constants are given. Whether binding was seen depends on the method and setting. In cells and extracts the contact can be indirect. Some binding calls cover weakened binding; strength is not graded here. Where a sequence is shown, tags or fusion partners need not be part of it.

The target of this test is GFP-JNK1 (UniProt P45983). Description: co-IP; GFP-JNK1 (or GFP-p38) and FLAG-MAP2K4 in HEK293 cells, with or without Myc-ZDHHC17; IP of JNK1 (or p38), MAP2K4 detected.

B1: Flag-MAP2K4 (protein, UniProt P45985 1-399)
chain: MAAPSPSGGGGSGGGSGSGTPGPVGSPAPGHPAVSSMQGKRKALKLNFANPPFKSTARFTLNPNPTGVQNPHIERLRTHSIESSGKLKISPEQHWDFTAEDLKDLGEIGRGAYGSVNKMVHKPSGQIMAVKRIRSTVDEKEQKQLLMDLDVVMRSSDCPYIVQFYGALFREGDCWICMELMSTSFDKFYKYVYSVLDDVIPEEILGKITLATVKALNHLKENLKIIHRDIKPSNILLDRSGNIKLCDFGISGQLVDSIAKTRDAGCRPYMAPERIDPSASRQGYDVRSDVWSLGITLYELATGRFPYPKWNSVFDQLTQVVKGDPPQLSNSEEREFSPSFINFVNLCLTKDESKRPKYKELLKHPFILMYEERAVEVACYVCKILDQMPATPSSPMYVD
Consider B1, for which the binding result is on record as “binds”.
